Experimental data published in the BET-seq Pho4 binding data (Le et al. 2018).
The list shows a part of the results. The energies were worked out here from pooled read counts, against the library average; single values are noisy.

biological target: T1, Pho4 (S. cerevisiae) (UniProt P07270); assay: relative binding free energy (BET-seq); higher = weaker binding; settings: reference: library average
T1 sequence: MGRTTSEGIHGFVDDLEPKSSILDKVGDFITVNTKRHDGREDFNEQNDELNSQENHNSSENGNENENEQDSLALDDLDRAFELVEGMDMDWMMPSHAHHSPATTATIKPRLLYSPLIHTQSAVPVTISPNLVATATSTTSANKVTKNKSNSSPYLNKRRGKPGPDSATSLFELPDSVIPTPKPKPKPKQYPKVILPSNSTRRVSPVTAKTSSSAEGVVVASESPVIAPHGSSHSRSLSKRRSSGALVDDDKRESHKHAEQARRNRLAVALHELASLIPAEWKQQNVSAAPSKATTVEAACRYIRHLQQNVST

Relative binding free energy, -0.11 kcal/mol:
TTACCCACGTGTTGGT
CTATGCACGTGTTGAG
AAGTGCACGTGGGGGA
CGGGACACGTGGGAGA
GTACACACGTGGGGGT

Relative binding free energy, 0 kcal/mol:
AGTATCACGTGCGCGG
ATTAACACGTGTTGAT
GGGTACACGTGGACGT
AAGTGCACGTGGCTGC
AGGGACACGTGCGAGT

Relative binding free energy, 0.27 kcal/mol:
AATGACACGTGAGAGG
GTTCTCACGTGGGAAT

Relative binding free energy, -0.02 kcal/mol:
TAGGACACGTGCGAGG
TTTGCCACGTGTGGTG
TATTGCACGTGTTATT

Relative binding free energy, 0.34 kcal/mol:
GGTTTCACGTGTATGC

Relative binding free energy, -0.29 kcal/mol:
AGGAGCACGTGGGTCA
TGAGGCACGTGGGGTA

Relative binding free energy, 0.17 kcal/mol:
TGGGTCACGTGCCGGT

Relative binding free energy, 0.45 kcal/mol:
GGGTTCACGTGGAAGT

Relative binding free energy, 0.22 kcal/mol:
AATTTCACGTGGATAT
TGGCTCACGTGGGTAC
TGACTCACGTGTGGGG
GTCATCACGTGGTGCG
GATTGCACGTGTAGAT
GTGCGCACGTGAGGAG
GTATTCACGTGGGGTT

Relative binding free energy, 0.18 kcal/mol:
TGTATCACGTGAAGCG
GCTTGCACGTGATTTG
ATTTACACGTGGCTTG
CGGTTCACGTGGGCTT
TAGATCACGTGTGCTA

Relative binding free energy, 0.14 kcal/mol:
AAGATCACGTGGTTTG
TGTTGCACGTGACTTA
ATTAACACGTGAGGTA
GGAATCACGTGGGCGT
GGTTCCACGTGGGATT

Relative binding free energy, -0.06 kcal/mol:
TGACACACGTGTTGTT
TTTAACACGTGGGGCA
TAGGGCACGTGTATAA
AGGAACACGTGTGCGG
CGTAGCACGTGGGATT
TTGTGCACGTGCCGTA

Relative binding free energy, 0.31 kcal/mol:
GTTATCACGTGATCTG
ACTTTCACGTGGGTTA

Relative binding free energy, -0.23 kcal/mol:
GTGAGCACGTGGGTAA

Relative binding free energy, 0.2 kcal/mol:
ATTGACACGTGATGTC
TTAATCACGTGTCGAG
GTTATCACGTGCGATA

Relative binding free energy, 0.35 kcal/mol:
TGGATCACGTGACATT
TTTTTCACGTGACTGG
GGATTCACGTGTTTAA

Relative binding free energy, 0.24 kcal/mol:
AGCGGCACGTGAGGGC
ATATTCACGTGATTCT
TTAGTCACGTGAGTGA
GGGGACACGTGATCTT

Relative binding free energy, 0.33 kcal/mol:
TGTTTCACGTGAGTGA
GTTTTCACGTGGTTGT

Relative binding free energy, 0.07 kcal/mol:
TAGGTCACGTGGGGTC
AGACTCACGTGGTTGT

Relative binding free energy, -0.27 kcal/mol:
CGACGCACGTGGGGGA

Relative binding free energy, 0.4 kcal/mol:
GCGGTCACGTGAAAGG

Relative binding free energy, 0.28 kcal/mol:
GAAGGCACGTGAGTGT
AAAAACACGTGAGGGT
TAGCTCACGTGTAGTA

Relative binding free energy, 0.41 kcal/mol:
GGGAACACGTGAAGAG

Relative binding free energy, -0.22 kcal/mol:
TCGGGCACGTGGCGCG

Relative binding free energy, 0.25 kcal/mol:
ATGTTCACGTGTATCG
AAGGACACGTGTAAGT
TAGTTCACGTGACTGT
TGGTTCACGTGTAGGT

Relative binding free energy, -0.15 kcal/mol:
CCAGGCACGTGGTGGG
CGGTGCACGTGGCTTG
AGACGCACGTGTTTTG

Relative binding free energy, -0.04 kcal/mol:
TCTGGCACGTGTATGG
GTGGGCACGTGCGTTC

Relative binding free energy, 0.15 kcal/mol:
CGAGTCACGTGGGCCG
TGCATCACGTGATGTT
ATGGTCACGTGGAAGT

Relative binding free energy, 0.12 kcal/mol:
GTATTCACGTGGTGAA
GGGTGCACGTGTGGTA
GGTAACACGTGTAGGG
TTCGTCACGTGTATTC

Relative binding free energy, 0.1 kcal/mol:
GCGTGCACGTGTAAGG
AATATCACGTGTGGCG
GGCTGCACGTGTGTGG
AATTGCACGTGATTGT
TTTCGCACGTGTCAGG
TCGGTCACGTGGAGTC

Relative binding free energy, -0.34 kcal/mol:
AGGCGCACGTGGGTCT

Relative binding free energy, 0.23 kcal/mol:
GGATTCACGTGGATGT
CGTCTCACGTGTTTGT
TGAATCACGTGGGAGT
TGGTCCACGTGTAGCG

Relative binding free energy, 0.26 kcal/mol:
CTGGTCACGTGTGATT
GTGAGCACGTGAGTGA
TTGGTCACGTGGTAAC
TAGTTCACGTGTATTA
GGATACACGTGTGAGA
AGATTCACGTGGCTTG

Relative binding free energy, 0.38 kcal/mol:
TACTTCACGTGGTTTT
GAGTTCACGTGGACGT

Relative binding free energy, -0.05 kcal/mol:
TTATGCACGTGGCTTT
TAAGGCACGTGATGTT
CTGAGCACGTGTAGTA
TGTAACACGTGCAGGG
TCTTGCACGTGCGGGG
ACATGCACGTGTGTGT
CGGGTCACGTGGGCGG
ATTTGCACGTGGTATG

Relative binding free energy, -0.33 kcal/mol:
TATGGCACGTGCGCGG

Relative binding free energy, 0.16 kcal/mol:
TGGGTCACGTGGACTA
TTCTGCACGTGTAAGA
GGAGTCACGTGTGGAT
AGGTTCACGTGGCGAT

Relative binding free energy, 0.04 kcal/mol:
TCCTGCACGTGTTGGG
TCTGGCACGTGGCGGC
TTTGTCACGTGGGAAT

Relative binding free energy, -0.13 kcal/mol:
TAAGACACGTGGGCGT
ATAGGCACGTGTATAT

Relative binding free energy, -0.03 kcal/mol:
CGAGTCACGTGGTGTA
GGGTGCACGTGGTAGT
GGATACACGTGGTTTT
ATATGCACGTGTACGT

Relative binding free energy, 0.02 kcal/mol:
GTTGGCACGTGATCGT
TATATCACGTGGGATG
GTGGACACGTGGGATT
AGCATCACGTGGTGTG
CATTGCACGTGTGCTT

Relative binding free energy, -0.1 kcal/mol:
TAGAACACGTGGGCGT

Relative binding free energy, -0.01 kcal/mol:
TCGGGCACGTGGATTG
AAGTGCACGTGGAGTG
GAGCGCACGTGTGGGG
GGGTCCACGTGCGAGT
CGGGACACGTGGAGTG
TTGCGCACGTGACGTG

Relative binding free energy, 0.08 kcal/mol:
GAATGCACGTGTTGGT
GCGGGCACGTGTGGGA
GAATACACGTGGGGGA

Relative binding free energy, -0.17 kcal/mol:
TTATGCACGTGGGTCC
TTGTACACGTGGTCAT
TGCAACACGTGGTTGT
TCTGGCACGTGCGGTA

Relative binding free energy, -0.19 kcal/mol:
TACAGCACGTGTGTGG
GTGGGCACGTGGGTTG
TTAGGCACGTGGGGCC
GTGTGCACGTGGGCGC

Relative binding free energy, -0.09 kcal/mol:
TGGGCCACGTGTGAGG

Relative binding free energy, 0.3 kcal/mol:
GCTTTCACGTGATGTT

Relative binding free energy, 0.46 kcal/mol:
GATTTCACGTGATAGT

Relative binding free energy, 0.09 kcal/mol:
AGCGTCACGTGTGGGA
TAAGTCACGTGTTGAG
AAATTCACGTGGGGTG
GTTGACACGTGGAGCT

Relative binding free energy, -0.2 kcal/mol:
AGAGGCACGTGTTATA
TCGGGCACGTGGAGTA
TGTACCACGTGGGTAG
TGTAGCACGTGCTTTG
GTTGGCACGTGTGCGT
TTAGTCACGTGGCAGG

Relative binding free energy, -0.08 kcal/mol:
TGGTGCACGTGCAAAG
TTCTACACGTGGGGTA
TGGGGCACGTGTCTTA

Relative binding free energy, 0.21 kcal/mol:
CGTTTCACGTGGTGTA
GTTTTCACGTGGCGTA
GTTTACACGTGCTTAG

Relative binding free energy, 0.32 kcal/mol:
GGTCGCACGTGAGGAA
TAATTCACGTGTTATG

Relative binding free energy, -0.07 kcal/mol:
TAAAACACGTGGTTTG
TTGGGCACGTGATCGA
TAGTGCACGTGTTGCG
CGTAGCACGTGGTAGA

Relative binding free energy, 0.44 kcal/mol:
CAGATCACGTGTGATG

Relative binding free energy, 0.06 kcal/mol:
GTGTCCACGTGGTTAG
AATATCACGTGTATGA
GTAAACACGTGTGGTG
ATTGTCACGTGCTAGG
TGCATCACGTGGTGAG
CTCGTCACGTGGCTGG
TATGTCACGTGTTTGA
ATTAGCACGTGGTCGC

Relative binding free energy, 0.11 kcal/mol:
AGGGTCACGTGTCATA
TTTGTCACGTGGACAA
TGTGTCACGTGGCATT
AGTTACACGTGTGGAT
TGCGACACGTGTATGG

Relative binding free energy, -0.18 kcal/mol:
GTACGCACGTGGGTTT

Relative binding free energy, 0.05 kcal/mol:
GAGTACACGTGGTTGT
GTTATCACGTGGGTTG
TTTAGCACGTGTCAGG
GATGGCACGTGTAGAA
CTGGTCACGTGCGGGT
GTCTGCACGTGTGGGT

Relative binding free energy, -0.12 kcal/mol:
TGAGGCACGTGGTATA
TATGACACGTGTAGTG
TAATGCACGTGGTGTA
TTGGGCACGTGGGGAG

Relative binding free energy, 0.51 kcal/mol:
TAGTTCACGTGAGTGT

Relative binding free energy, 0.13 kcal/mol:
AAGCTCACGTGTATGT
TGTGTCACGTGAAACG
CCTGTCACGTGTGTAG
AAAAGCACGTGAGGTG
AATAGCACGTGTGAAT
ATCATCACGTGTTTAG

Relative binding free energy, 0.03 kcal/mol:
GGTCACACGTGGTTAA
ATAGTCACGTGGAGTG
GTGTCCACGTGGGATT
TTTAGCACGTGTGGCC
GGAGTCACGTGGCGAT

Relative binding free energy, -0.16 kcal/mol:
GGAGCCACGTGGCGGT
TGCACCACGTGGGAGG
GGCGCCACGTGGTCGG

Relative binding free energy, -0.14 kcal/mol:
AACCGCACGTGGGGTG
TAGTGCACGTGCCGTT
GTAGGCACGTGCAGTT

Relative binding free energy, 0.36 kcal/mol:
AAGTTCACGTGAAATT
TGTTTCACGTGAGCTA
ATAATCACGTGAGGGG

Relative binding free energy, 0.01 kcal/mol:
TGCGACACGTGTGAGG
GTAGGCACGTGTCAGA
GGGGGCACGTGTCGTG
TGTCGCACGTGGGAAA
GGGGGCACGTGTGAAA
CTAGTCACGTGTTTAG

Relative binding free energy, 0.19 kcal/mol:
TTGATCACGTGTCGTT
GTGGGCACGTGAGGTT
CTTCTCACGTGTTGTA
ATGTTCACGTGATATG
CAGGTCACGTGTTTTA

Relative binding free energy, 0.48 kcal/mol:
AAGTTCACGTGAGTCG
